Assay results from PubChem BioAssay AID1159614 (National Center for Advancing Translational Sciences (NCATS), 2016).
In all, about 45,000 compounds went through this assay and about 65 (0.1%) were called active. Calls come from the whole dose curve; as a rule, active = well fitted activation curve with a large enough effect; inconclusive = small, poorly fitted or top-dose-only effect; inactive = no such curve, though single readings can be large or run the other way. Some of the results follow.

molecular target: Galactocerebrosidase (Homo sapiens) (UniProt P54803); assay: A Novel Cell-Based Assay to Identify Small Molecules for B -Galactocerebrosidase; conditions: 145M-Twi-hGALC-G270D cells (Twitcher mouse brain line with human GALC G270D), HMU-beta-Gal fluorescence, 48 h; series mostly up to 57.5 µM; activation: at the top concentration; note: 0% is about no effect; nearly all actives have a fitted effect of over 65% in size
Sequence of UniProt P54803 (P54803 whole entry, looked up): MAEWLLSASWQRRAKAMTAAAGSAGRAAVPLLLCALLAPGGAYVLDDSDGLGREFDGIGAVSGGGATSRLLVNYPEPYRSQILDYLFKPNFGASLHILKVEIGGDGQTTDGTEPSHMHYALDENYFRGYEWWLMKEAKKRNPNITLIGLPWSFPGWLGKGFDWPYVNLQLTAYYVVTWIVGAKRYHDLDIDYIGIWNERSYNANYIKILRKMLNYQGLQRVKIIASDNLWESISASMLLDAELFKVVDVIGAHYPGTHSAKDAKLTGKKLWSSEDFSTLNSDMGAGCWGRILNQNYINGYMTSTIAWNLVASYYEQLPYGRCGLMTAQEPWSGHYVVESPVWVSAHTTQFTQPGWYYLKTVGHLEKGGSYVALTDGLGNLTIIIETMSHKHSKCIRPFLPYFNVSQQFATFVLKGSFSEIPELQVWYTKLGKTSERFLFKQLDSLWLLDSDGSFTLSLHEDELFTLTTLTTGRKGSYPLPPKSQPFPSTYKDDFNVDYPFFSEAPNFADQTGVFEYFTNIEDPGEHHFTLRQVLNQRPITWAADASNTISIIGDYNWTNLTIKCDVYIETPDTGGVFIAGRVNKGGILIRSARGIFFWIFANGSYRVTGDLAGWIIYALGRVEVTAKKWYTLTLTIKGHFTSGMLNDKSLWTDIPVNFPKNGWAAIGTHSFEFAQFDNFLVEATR
Outline: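 Fluorogenic HMU-b-Gal hydrolysis (0.1 mM final, pH 5.2 citrate-phosphate with 1 mg/mL sodium taurocholate; carbonate stop buffer) measures mutant GALC activity after compound treatment of live 145M-Twi Twitcher brain cells stably carrying human GALC-G270D, with wild-type GALC line alongside; activation sought.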

| Compound | activation |
| --- | --- |
| Cc1ccc(C(c2sc3nc(-c4ccco4)nn3c2O)N2CCCCC2)cc1 (stereo unspecified) | inactive: 1.98% |
| Cc1ccc(NC(=O)C2CCN(c3nc4ccccc4[nH]3)CC2)cc1Cl | inactive: -8.18% |
| O=C(NCc1cccs1)c1ccc(CSc2nc3ccncc3n2Cc2cccc(F)c2)cc1 | inactive: -9.78% |
| CN1CCC(=C2c3ccccc3C=Cc3ccccc32)CC1 | inactive: -13.6% |
| CCOC(=O)c1c(-c2ccc(C)cc2)csc1NC(=O)c1cc(=O)c2cc(C)c(C)cc2o1 | inactive: 2.17% |
| CC1Cc2cc(S(=O)(=O)NCc3ccc(F)cc3)ccc2N1C(=O)C1CCC1 (stereo unspecified) | inactive: -0.643% |
| COc1ccc(C2c3c(oc4ccc(F)cc4c3=O)C(=O)N2Cc2ccc3c(c2)OCO3)cc1 (stereo unspecified) | inactive: 7.58% |
| CCOc1ccc(C(CC(=O)O)N2Cc3ccccc3C2=O)cc1OC (stereo unspecified) | inactive: -9.49% |
| Cc1ccc(N2CC(c3nc4ccccc4n3CCC3CCCCC3)CC2=O)cc1 (stereo unspecified) | inactive: -12.4% |
| O=C(Nc1ccccc1Br)C1CCCN(S(=O)(=O)c2cccc3nsnc23)C1 (stereo unspecified) | inactive: -3.41% |
| COc1cccc(N2CCN(S(=O)(=O)c3ccc4[nH]c5c(c4c3)CCCC5)CC2)c1 | inactive: 0.75% |
| O=C1CC(c2ccccc2)Cc2[nH]c(=O)c(C(=O)Nc3cccc(F)c3)cc21 (stereo unspecified) | inactive: -12% |
| O=C(NCCS(=O)(=O)N1CCN(c2ccccc2)CC1)C(c1ccccc1)c1ccccc1 | inactive: -15.5% |
| Cc1cccc(NC(=O)c2c(NC(=O)C(F)(F)F)sc3c2CCCCC3)c1 | inactive: -16.4% |
| CCOC(=O)c1cccc(Nc2c3c(nc4ccccc24)CCC3)c1 | inactive: -13.1% |
| N#C/C(=C\c1ccccc1)c1nc(-c2cc3cc(Br)ccc3oc2=O)cs1 | inactive: -15.3% |
| COC(=O)c1ccccc1NC(=O)NCCc1c(C)nn(C)c1C | inactive: 0.973% |
| CCc1ccc(CNCc2c(C(=O)O)n(Cc3cccc(F)c3)c3cc(OC)ccc23)cc1 | inactive: -9.46% |
| Cc1cccc(N(C)C(=O)c2cc(S(=O)(=O)N3CCCC3)cn2C)c1 | inactive: -10.5% |
| Cc1noc(C)c1S(=O)(=O)N1CCC(C(=O)N2CCN(c3ccccc3)CC2)CC1 | inactive: -8.65% |
| CCOC(=O)c1oc2c(c1C)-c1nn(Cc3ccc(Cl)cc3)cc1CC2 | inactive: 1.39% |
| O=C(CSc1nc2c([nH]c3ccccc32)c(=O)n1-c1ccc(F)cc1)N1CCCCC1 | inactive: -0.896% |
| CCc1ccc(OCC(=O)N(Cc2ccc(Cl)cc2)C2CCS(=O)(=O)C2)cc1 (stereo unspecified) | inactive: 5.32% |
| COc1ccccc1NC(=O)Cn1nnc(C(=O)NCc2ccc3c(c2)OCO3)c1N | inactive: 8.32% |

| Compound | activation |
| --- | --- |
| Cn1c(NCCO)nc2c1c(=O)n(Cc1ccccc1Cl)c(=O)n2C | inactive: -10.9% |
| CCC(C)NC(=O)Cn1c(=O)cc(-c2ccccc2)c2c(C)nn(C)c21 (stereo unspecified) | inactive: -4.04% |
| Cc1c(C(=O)N(C)C)sc2c1c(=O)n(-c1ccc(Cl)c(Cl)c1)c(=O)n2CC(=O)Nc1cccc(C(F)(F)F)c1 | inactive: -12.8% |
| COc1cccc(N2CCN(C(=O)c3c(C)oc4ncnc(N5CCOCC5)c34)CC2)c1 | inactive: -8.8% |
| CCn1c(=O)n(CC)c2cc(N3CCCCC3)c(NC(=O)Nc3ccccc3Cl)cc21 | inactive: -2.92% |
| CC(C)c1ccc(NC(=O)CN(C)S(=O)(=O)c2ccc3c(c2)c(=O)n(C)c(=O)n3C)cc1 | inactive: 7.33% |
| Cc1nnc(C(=O)NC(C)(C)c2nc(C(=O)NCc3ccc(F)cc3)c(O)c(=O)n2C)o1 | inactive: -17.1% |
| COc1cccc(Oc2nc3c(c(=O)n(Cc4ccccc4F)c(=O)n3C)n2C)c1 | inactive: -14.9% |
| COc1cc2[nH]c(=O)n(CCCCCC(=O)N3CCN(c4cccc(C(F)(F)F)c4)CC3)c(=O)c2cc1OC | inactive: -5.84% |
| O=C(CCS(=O)(=O)c1cc(Br)cc2c1N(C(=O)C1CC1)CC2)Nc1ccc(Br)cc1F | inactive: -12.4% |
| CCOC(=O)Cc1ccc(NC(=O)NCc2ccc3c(c2)CCN3C(=O)CC)cc1 | inactive: -5.33% |
| Cc1ccc(NS(=O)(=O)c2cc(Br)cc3c2N(C(=O)C2CC2)CC3)cc1C | inactive: -6.93% |
| CCCS(=O)(=O)c1c(Nc2ccccc2C)sc(C(=O)c2ccccc2)c1N | inactive: -18.4% |
| COC(=O)c1ccc(Cn2nnc3sc4c(c3c2=O)CCC(C)C4)cc1 (stereo unspecified) | inactive: -7.92% |
| CCOc1ccccc1CNC(=O)CCn1ccc2cc(S(=O)(=O)N3CCC(C)CC3)ccc21 | inactive: -3.93% |
| COc1ccc(NC(=O)Cn2c(=O)oc3cc(S(=O)(=O)N4CCC(C)CC4)ccc32)c(OC)c1 | inactive: -9.57% |
| CCc1ccccc1N(C)C(=O)Cn1cnc2sc(C)c(S(=O)(=O)N3CCN(c4ncccn4)CC3)c2c1=O | inactive: -3.44% |
| CC(=O)N(Cc1cccnc1)c1nc2c(C)c(C)ccc2s1 | inactive: 1.43% |
| Cc1ccc(Cl)cc1NC(=O)C1CCC(CNS(=O)(=O)c2cccc3nsnc23)CC1 (stereo unspecified) | inactive: -19.6% |
| O=Cc1ccc(O)c(O)c1O | inactive: -11% |
| CCc1ccc2c(c1)NC(c1cccs1)=NC(c1ccc(F)cc1)=N2 | inactive: -15.6% |
| COc1ccc2c(CNCCc3cccs3)c(C(=O)O)n(Cc3ccccc3)c2c1 | inactive: -9.77% |
| O=C(CCCN1C(=O)C(c2ccccc2)Oc2cccnc21)Nc1ccc(Br)cc1F (stereo unspecified) | inactive: -10.9% |
| O=C(NC1CCCc2ccccc21)c1ccc2c(c1)sc1nc(-c3ccc(F)cc3)cn12 (stereo unspecified) | inactive: -12.5% |

| Compound | activation |
| --- | --- |
| COc1ccc(-c2nc(SCC(=O)NCCc3ccc(OC)c(OC)c3)n[nH]2)cc1 | inactive: -0.158% |
| CCOc1ccc(CCNC(=O)c2cc3c(=O)[nH]c4ccc(C)cc4c3s2)cc1OCC | inactive: -13.4% |
| CCCCN(CC)CCNC(=O)c1cc2c(=O)oc3ccc(C)cc3c2s1 | inactive: 0.754% |
| CCn1c(=O)c2cc(C(=O)NCCc3cc(OC)ccc3OC)sc2c2ccccc21 | inactive: -14.3% |
| CCc1ccc2oc(-c3ccc(NC(=O)c4ccc(OC)c(Br)c4)cc3)nc2c1 | inactive: -4.43% |
| Cc1ccc(-n2c(C)nc3c(cnn3-c3ccccc3C)c2=O)cc1F | inactive: -21.8% |
| O=C(NCc1cccc(F)c1)c1ccc(-n2cnc3cccnc32)cc1 | inactive: -12.4% |
| Cc1cccc(Cn2cc(C(=O)Nc3ccc(F)c(C(F)(F)F)c3)ccc2=O)c1 | inactive: -9.78% |
| Cc1cccc(C)c1OCC(=O)Nc1nc(-c2ccc(Br)cc2)ns1 | inactive: -14.5% |
| Cc1cc(C)c(Cn2c3ccccc3c3cnn(CC(=O)N4CCCCCC4)c(=O)c32)c(C)c1 | inactive: -10.3% |
| Cc1cccc(-n2c(-c3ccccc3)cn3c4c(=O)[nH]c(=O)n(C)c4nc23)c1 | inactive: -9.61% |
| Cn1cc(S(=O)(=O)c2ccccc2)c(=O)c2cc(F)c(N3CCN(c4ccccc4)CC3)cc21 | inactive: -9.14% |
| Cc1ccc(-c2cc(C(F)(F)F)n3nc(C(=O)Nc4ccc(Cl)c(C(F)(F)F)c4)cc3n2)cc1 | inactive: -14.2% |
| CCN(CC)CCCNC(=O)C1CCN(S(=O)(=O)CC)CC1 | inactive: -20.5% |
| CC(=O)c1ccc(NC(=O)c2c3c(nc4ccccc24)C(=O)N(C2CCCCC2)C3)cc1 | inactive: -12.3% |
| O=S1(=O)c2ccccc2N(Cc2ccccc2)c2ccccc21 | inactive: -23.1% |
| COC(=O)c1cc(C)nc2c1c(=O)nc(SCc1ccccc1F)n2C1CC1 | inactive: -11% |
| CCOc1ccc(C(=O)Nc2c(C(=O)Nc3ccccc3F)oc3ccccc23)cc1OCC | inactive: -0.919% |
| O=C(Cn1c(=O)n(-c2cccc(Cl)c2)c(=O)c2sc3ccccc3c21)N1CCCC1 | inactive: -1.6% |
| COc1ccc(OCCn2cc(C(=O)C3CCCCC3)c3ccccc32)cc1 | inactive: -11.5% |
| O=C(Nc1cccc(Br)c1)N1CCC(CN2CCCCC2)CC1 | inactive: -14.9% |
| Cc1ccc(NC(=O)CSc2nc3ncccc3[nH]2)cc1F | inactive: -24% |
| COc1cccc(N2CCN(C(=O)c3cnn(C(C)(C)C)c3C3CCN(C(=O)OC(C)(C)C)CC3)CC2)c1 | inactive: -16.5% |
| O=C(c1ccc2c(c1)CCN2S(=O)(=O)c1ccccc1)N1CCN(c2ccc(F)cc2)CC1 | inactive: -4.81% |

| Compound | activation |
| --- | --- |
| Cc1ccc(S(=O)(=O)Cc2nc(-c3ccc(C(=O)NCc4ccccc4)cc3)oc2C)cc1 | inactive: -14.8% |
| CCc1cccc(NC(=O)Cn2c(=O)n(Cc3ccccc3)c(=O)c3c2c2cc(OC)ccc2n3C)c1 | inactive: -8.47% |
| O=C(NCc1ccc(Cl)cc1)C(=O)Nc1ccc(Br)cc1 | inactive: -10.4% |
| COc1ccc(NC(=O)/C(C#N)=C/c2ccc(OCc3cc(=O)n4nc(C)sc4n3)cc2)cc1 | inactive: 4.2% |
| CC1CCN(C(=O)CSc2nnc(-c3ccccc3Cl)o2)CC1 | inactive: -15.7% |
| O=S(=O)(Nc1ccc2oc3c(c2c1)CCCC3)c1cc(Cl)ccc1Cl | inactive: -6.02% |
| CCN(C(=O)Cn1nc(Cc2cccnc2)c2ccccc2c1=O)c1ccccc1F | inactive: -5.33% |
| CCc1ccccc1NC(=O)Cn1c(-c2nonc2N)nc2ccccc21 | inactive: -7.64% |
| O=C(NCCc1csc(-c2ccc(Cl)cc2)n1)c1cccs1 | inactive: -12.2% |
| COC(=O)c1c(NC(=O)CCCOc2ccc(C(C)(C)C)cc2)sc2c1CCC(C)C2 (stereo unspecified) | inactive: -12.5% |
| Cc1ccc2nc(-c3cc(NC(=O)c4ccc5c(c4)OCCO5)ccc3Cl)oc2c1 | inactive: -11% |
| COc1ccc(C2Sc3ccccc3NC3=C2C(=O)c2ccccc23)c(OC)c1OC (stereo unspecified) | inactive: -16.7% |
| COc1ccc(NC(=O)CCNS(=O)(=O)c2cccc3nsnc23)cc1 | inactive: -12.6% |
| COc1ccc(-c2onc(C)c2C)cc1S(=O)(=O)N1c2ccccc2CC1C (stereo unspecified) | inactive: -8.21% |
| Cc1ccc(S(=O)(=O)NCCc2cn3c(C)csc3n2)cc1 | inactive: -12.5% |
| Cc1cccc(NC(=O)C2CCN(c3nnc(-n4c(C)ccc4C)s3)CC2)c1C | inactive: 0.61% |
| COc1ccc(Cl)cc1NC(=O)CCS(=O)(=O)c1nc(-c2cccs2)cc(C(F)(F)F)n1 | inactive: -21.6% |
| CCOC(=O)c1ccc(NC(=O)Nc2c[nH]c(=O)[nH]c2=O)cc1 | inactive: 0.864% |
| CCOC(=O)c1cc(-c2ccccc2)n(CC(=O)NC(C)c2ccccc2)c1C (stereo unspecified) | inactive: -4.43% |
| Cc1ccc(CNC(=O)c2cc3c(s2)-c2ccccc2SC3)cc1 | inactive: -29.3% |
| CC(C)CN(CCCNC(=O)Cn1ncc2c3ccccc3n(C)c2c1=O)CC(C)C | inactive: -1.44% |
| O=C(NC1(C(F)(F)F)C(=O)Nc2c1c(=O)[nH]c(=O)n2CCc1ccccc1)c1ccc(Cl)cc1Cl (stereo unspecified) | inactive: -8.15% |
| COc1ccccc1-c1cc2nc(C)c(CCC(=O)Nc3ccc(Br)c(C)c3)c(C)n2n1 | inactive: -39.6% |
| CCn1cc(C(=O)N2CCN(c3cccc(C(F)(F)F)c3)CC2)c2cc(OC)c(OC)cc2c1=O | inactive: -7.36% |
